Laboratory results reported in the RNAGym collection of RNA variant scans (doi:10.1073/pnas.2313332121).
This sample is rich in variants without activity.

B1: TPR 5TU (parent)
chain: GGAUCUUCUCGAUCUAACAAAAAAGACAAAUCUGCCACAAAGCUUGAGAGCAUCUUCGGAUGCAGAGGCGGCAGCCUUCGGUGGCGCGAUAGCGCCAACGUUCUCAACUAUGACACGCAAAACGCGUGCUCCGUUGAAUGGAGUUUAUCAUG

Variants of: B1
Assay: polymerase ribozyme fitness, log enrichment relative to wild type (log ratio); higher = more active; in vitro selection for triplet polymerase activity
In short: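 In triplicate, a single round of in vitro selection was run on each mutant library, PCR-built and transcribed, covering one subunit of a heterodimeric triplet polymerase ribozyme. Frozen incubation at −7 °C followed annealing with a biotinylated primer, partner subunit and triplets, and extended constructs were then gel-excised, streptavidin-captured and taken through RT-PCR. Fitness is the logarithm of genotype enrichment over wild-type enrichment, from inverse-variance-weighted replicate averages of Illumina-sequenced inputs and outputs. […] only genotypes with ≥10 input reads and ≥1 read per output were kept.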

Point of comparison: GGAUCUUCUCGAUCUAACAAAAAAGACAAAACUGCCACAAAGCUUGAGAGCGUCUUCGGAUGCAGAGGCGGCAGCCUUCGGUGUCGCGAUAGCGCCAACGUUCUCAACUAUGACACGCAAAACGCGUGCUCCGUUGAAUGGAGUUUAUCAUG [U31A A52G G84U], “polymerase ribozyme fitness (log ratio)” value -0.528. Against it:
- GGAUCUUCUCGAUCUAACAAAAAAGACAAAACUGCCACAAAGCUUGAGGGCAUCUUCGGAUGCAGAGGCGGCAGCCUUCGGUGGCGCGAUAGCGCCAACGUUCUUAACUAUGACACGCAAAACGCGUGCUCCGUUGAAUGGAGUUUAUCAUG [U31A A49G C105U] — within 0.2 log units, -0.707
- GGAUCUUCUCGAUCUAACAAAAAAGACAAUUCUGCCACAAAGCUUGAGAGCAUCUUCGGAUGCAGAGGCGGCAGCCUUCGGUUGCGCGAUAGCGCCAACGUUCUCAACUAUGACACGCAAAACGCGUGCUCCGUUGAAUGUAGUUUAUCAUG [A30U G83U G141U] — lower, -3.89
- GGAUCUUCUCGAUCUAACAAAAAAGACAAUUCUGCCACAAAGCUUGAGAGCAUCUUCGGAUGCAGAGGCGGCAGCCUUCGGUGGCACGAUAGCGCCAACGUUCUCAACUAUGACACGCAAAACGCGUGCUCCGUUGAAUGGAGUUUAUCAUG [A30U G86A] — lower, -3.95
- GGAUCUUCUCGAUCUAACAAAAAAGACAAUUCUGCCACAAAGCUUGAGAGCAUCUUCGGAUGCAUAGGCGGCUGCCUUCGGUGGCGCGAUAUCGCUAACGUUUUCAACUAUGACACGCAAAACGCGUGCUCCGUUGAAUUGAGUUUAUCAUG [A30U G65U A73U G92U C96U C103U G140U] — lower, ≤ -4.2
- GGAUCUUCUCGAUCUAACAAAAAAGACAAUUCUGCCACAAAGCUUGAGAGCAUCUUCGGAUGCAGAGGCGGCAGCCUUCGCUGGCGCGAUAGCGCCAACGUUCUCAGCUAUGACACGCAAAACGCGUGCUCCGUUGAAUGGAGUUUAUCAUG [A30U G81C A107G] — lower, ≤ -4.2
- GGAUCUUCUCGAUCUAACAAAAAAGACAAUUCUGCCACAAAGCUUGAGAGCACCUUCGGAUGCAGAGGCGGCAGCCUUUGGUGGUGCGAUAACGCCAACGUUCUCAACUAUGACACGCAAAACGCGUGCUCCGUUGAAUGGAAUUUAUCAUG [A30U U53C C79U C85U G92A G143A] — lower, ≤ -4.2
- GGAUCUUCUCGAUCUAACAAAAAAGACAAUUCUGCCACAAAGCUUGAGAGCAUCUUCGGAGGCAGAGACGGCAGCCUUCGGUGGCGCGAUAGUGCCAACGUUGUCAACUAUGACACGCAAAACGCGUGCUCCGUUGAAUGGAGUUUCUCAUG [A30U U61G G68A C93U C103G A147C] — lower, ≤ -4.2
- GGAUCUUCUCGAUCUAACAAAAAAGACAAUUCUGCCACAAAGCUUGAGACCAUCUUUGGAUGCAGAACCGGCAGCCUUCGGUGGCGCGAUAGUGCCAACGUUCUCUACUAUGACACGCAAAACGCAUGCUCCGUUGAAUGGAGUUUAUCAUG [A30U G50C C57U G67A G68C C93U A106U G126A] — lower, ≤ -4.2
- GGAUCUUCUCGAUCUAACAAAAAAGACAAUUCUGCCACAAAGCAUGAGAGCCUCUUCGGAUGCAGAGGCGGCAGCGUUCCGUGGCGUGAUAGCGCCAACGUUCUCAACUAUGACACGCAAAACGCGUGCUCCGUUGAAUGGAGUUUAUCAUG [A30U U44A A52C C76G G80C C87U] — lower, ≤ -4.2
- GGAUCUUCUCGAUCUAACAAAAAAGACAAUUCUGCCACAAAGCUUGAGAGCAUCUUCGGAUGCAGAGUCGGCAGCAUUCGGUGGCGCGAUCGCGCCAACGUUCUCAACUAUGACACGCAAAACGCGUGCUCCGUUGAAUGGAGUUUAUCAUG [A30U G68U C76A A91C] — lower, ≤ -4.2
- GGAUCUUCUCGAUCUAACAAAAAAGACAAUUCUGCCACAAAGCUUGAGAGCAUCUUCGGAUGCAGAGGCGGCAGCCUUCGGUGGCGCGAUAGCGUCAACGUUCUCAACUAUGACACGCAAAACGCGUGCUCCGUUGAAUGGAGUUUAUCAUG [A30U C95U] — lower, -3.31
- GGAUCUUCUCGAUCUAACAAAAAAGACAAAACUGCCACUAAGCUUGAGAGCAUCUUCGGAUGCAGAGGCGGCAGCCUUCGGUGGCGCGAUAGGGUCAAUGUUCUCAGCUAUGUCACGCAAAACGCGUGCUCUGUCGAGUGGAGUUUAUCAUG [U31A A39U C93G C95U C99U A107G A113U C132U U135C A138G] — lower, ≤ -4.2
- GGAUCUUCUCGAUCUAACAAAAAAGACAAUUCUUCCACAAAGCUUGAGAGCAUCUUCGGAUGCAGAGGCGGCAGCCUUCGGUGGAGCGAUAGCGCCAACGUUCUCAACUAUGACACGCAAAACGCGUGCUCCGUUUAAUGGAGUUUAUCAUG [A30U G34U C85A G136U] — lower, ≤ -4.2
- GGAUCUUCUCGAUCUAACAAAAAAGACAAUUCUGCCACAAAGCUUGAGAGCAUCUACGGAUACAGAGGCGGCACCCUUCGGUGGCGGGAUAGCGCCAACGUUCUCAACUAUGACACGCAAAACGCGUGCUCCGUUGAAUGGAGCUUAUCAUG [A30U U56A G62A G74C C87G U144C] — lower, ≤ -4.2
- GGAUCUUCUCGAUCUAACAAAAAAGACAAAACUGCCACAAGGCUUGCGCGCAUCUUCGGAUGCAGAGGCGGCAGCCCACGGUGGCGAGAUAGCGCCAACGUUGUCAAUUAUGACACGCAAAACGCGUGCUCCGCUGAAUGGAGUUUAUCAGG [U31A A41G A47C A49C U77C U78A C87A C103G C108U U134C U151G] — lower, ≤ -4.2
- GGAUCUUCUCGAUCUAACAAAAAAGACAAAACUGCCACAAAGCUUGAGAGCAUCUUCGGAUGCAGAGGCGGCAGCCUUCGGUGGCGCGAUCGCGCCAACGUUCUCAACUAUGACAAGCAAAACGCGUGCUCCGUUGAAUGGAGUUUAUCAUG [U31A A91C C116A] — lower, -3.88
- GGAUCUUCUCGAUCUAACAAAAAAGACAAUUCUGCCACAAAGCUUGAGAACCUCUUCGGAUGCAGAGGCGGCAGCCUUCCGUGGCGCGAUAGCUCCAACGUUCUCAACUAUGACACGGAAUAAGCGUGCUCCGUUGAAUGGAGUUUAUCAUG [A30U G50A A52C G80C G94U C118G A121U C123A] — lower, ≤ -4.2
- GGAUCUUCUCGAUCUAACAAAAAAGACAAAACUGCCACAUAGCUUGAGAGCAUCUUCGGAUGCAGAGGCGGCAGCCUUCGGUGGGGCGAUAGCGCCAACGUUCUCGACUAUGACACGCAAAACGCGUGCUCCGUUGAAUAGAGUUUAUAAUG [U31A A40U C85G A106G G140A C149A] — lower, ≤ -4.2
